“And” between values parts separate entries of the source, which are not always exact repeats. Equal values may be shown once. Where a name gives a salt, the structure may show the parent alone. ± gives the standard deviation of the averaged measurements. The list shows a part of the results. Repeats are few or missing, and single values can be far off.

In the test the test system is mouse mesenchymal chondrosarcoma cells (HEY1-NCOA2). Description: XTT absorbance relative to DMSO control (cell viability) (fraction of DMSO control); higher = more viable cells / less growth inhibition.
In the case of `COC(=O)C1(OC)CC2OC1(C)n1c3ccccc3c3c4c(c5c6ccccc6n2c5c31)C(=O)N(C)C4` (stereo not drawn), the XTT absorbance is 0.95 and 0.962.
Next, `CC[C@@]1([C@@H]2O[C@@H]([C@H]3O[C@@](O)(CO)[C@H](C)C[C@@H]3C)C[C@@H]2C)CC[C@H]([C@]2(C)CC[C@]3(C[C@H](O)[C@@H](C)[C@@H]([C@@H](C)[C@@H](OC)[C@H](C)C(=O)O)O3)O2)O1` [Monensin]: 0.362.
`C#CCN(C)C(C)Cc1ccccc1` (stereo not drawn) [Deprenyl] showed an XTT absorbance of 0.932.
With `N[C@@H]1C[C@H]1c1cc(F)cc(F)c1OCc1ccccc1` [S2101 (LSD1 inhibitor II)], the XTT absorbance amounted to 0.976.
Compound `CC(=O)N[C@H]1[C@@H](O[C@@H]2O[C@H](CC(O)[C@H]3O[C@@H](n4ccc(=O)[nH]c4=O)[C@H](O)[C@@H]3O)[C@H](O)[C@H](O)[C@H]2NC(=O)/C=C/CC(C)C)O[C@H](CO)[C@@H](N)[C@@H]1O` (stereo partly drawn) [Tunicamycin] had an XTT absorbance of 0.322.
As to `N.N.[Cl][Pt][Cl]` [Cisplatin], the XTT absorbance came to 1.02.
In the case of `COc1ccc2c3c([nH]c2c1)[C@H](C=C(C)C)N1C(=O)[C@@H]2CCCN2C(=O)[C@@H]1C3` [Fumitremorgin C], the XTT absorbance turned out to be 0.915.
For `O=C1NC(=O)c2c1c1c3ccccc3n3c1c1c2c2ccccc2n1[C@H]1CC[C@@H]3O1`, the XTT absorbance was 0.914 and 0.93.
As to `COC[C@H]1OC(=O)c2coc3c2[C@@]1(C)C1=C(C3=O)[C@@H]2CCC(=O)[C@@]2(C)C[C@H]1OC(C)=O` [Wortmannin], the XTT absorbance was determined as 0.828 ± 0.024.
For `O=C(O)c1nn(Cc2ccc(Cl)cc2Cl)c2ccccc12` [Lonidamine], the XTT absorbance stood at 0.919.
As for `CC(C)[C@@H]1NC(=O)[C@H](C)OC(=O)[C@@H](C(C)C)NC(=O)[C@@H](C(C)C)OC(=O)[C@H](C(C)C)NC(=O)[C@H](C)OC(=O)[C@@H](C(C)C)NC(=O)[C@@H](C(C)C)OC(=O)[C@H](C(C)C)NC(=O)[C@H](C)OC(=O)[C@@H](C(C)C)NC(=O)[C@@H](C(C)C)OC1=O` [Valinomycin], the XTT absorbance was found to be 0.815.
The value for `C[C@@]1(CO)[C@H](O)CC[C@@]2(C)[C@H]1CC[C@H]1C[C@@H]3C[C@@]12CC[C@]3(O)CO` [Aphidicolin] was 0.431; that for `CC[C@H]1/C=C/C=C/C[C@@H](C)[C@H](O)[C@@](C)(O)C(=O)[C@@H](C)[C@H](O)[C@@H](C)C(=O)[C@@H](C)[C@H](O)[C@@H](C)/C=C/C(=O)O[C@@H]2[C@H](C)[C@H](CC1)O[C@]1(CC[C@H](C)[C@H](C[C@@H](C)O)O1)[C@H]2C` [Oligomycin] was 1.09; that for `CC(C)(C)c1cc(C=C(C#N)C#N)cc(Br)c1O` was 0.905 ± 0.062.
`O[C@H]1[C@H]2[C@H](O)CCCN2C[C@H]1O` [Swainsonine]: the XTT absorbance was 0.96.
Regarding `CO/C1=C\C(C)=C\[C@@H](C)[C@@H](O)[C@@H](C)C/C(C)=C/C=C/[C@H](OC)[C@@H]([C@@H](C)[C@@H](O)[C@H](C)[C@@]2(O)C[C@@H](O)[C@H](C)[C@@H](C(C)C)O2)OC1=O` [Bafilomycin A1], the XTT absorbance worked out at 0.765.
In turn, `N=C(N)NN` [Aminoguanidine, HCl] displayed an XTT absorbance of 0.889.
With `CC1=C2C[C@H]3[C@@H](CC=C4C[C@@H](O)CC[C@@]43C)[C@@H]2CC[C@]12O[C@@H]1C[C@H](C)CN[C@H]1[C@H]2C` [cyclopamine], the XTT absorbance was determined as 1.02.
On to `O=C1Nc2ccccc2C2(CCN(CCc3ccc(C(F)(F)F)cc3)CC2)O1`, for which the XTT absorbance was found to be 0.981.
For `C[C@H](CCC(=O)O)C[C@H](C)C[C@H](C)C(=O)/C=C(\O)[C@H](C)C[C@H](C)C/C=C/[C@@H](C)[C@@H](O)[C@@H](C)[C@@H](O)C[C@@H]1CC[C@@](C)([C@H]2CC[C@@](C)([C@@H](C)O)O2)O1` [Ionomycin], the XTT absorbance is 0.856.
`CC1=C2C(=O)[C@H]3[C@@H](CC=C4C[C@@H](O)CC[C@@]43C)[C@@H]2CC[C@]12O[C@@H]1C[C@H](C)CN[C@H]1[C@H]2C` [Jervine] gave an XTT absorbance of 1.04.
Regarding `C=C(C)[C@H]1Cc2c(ccc3c2O[C@@H]2COc4cc(OC)c(OC)cc4[C@@H]2C3=O)O1` [Rotenone], the XTT absorbance came out at 0.724.
Consider `CN1C(=O)CN=C(c2ccc(Cl)cc2)c2cc(Cl)ccc21`, for which the XTT absorbance came out at 0.945.

The values are drawn from the supplement of paper PMC10322689.
